Assay results reported in the supplement of paper PMC10126150.
Sequences with one replicate were seen in a single cluster, so their values are uncertain.

Tested on: ATP
Assay: switch fluorescence ratio, 500 uM ATP over buffer (Cy3 cluster intensity, sum of 5 cycles each) (fold (ratio)); higher = stronger signal-on switching upon ATP binding; sequences stand for … in TCGTCGGCAGCGTCAGATGTGTATAAGAGACAGTTTTTTTTTTTTTTTTTTTTTTTTT…TC
Conditions: aptamer strand: ATP DNA aptamer (quencher-CACCTGGGGGAGTATTGCGGAGGAAGG + anchor), 100 nM annealed; ATP concentration: 500 uM; one replicate
In short: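 Five buffer/ATP imaging cycles were run on Cy3-labelled switching-strand clusters on a modified Illumina MiSeq flow-cell, with NaOH stripping and re-annealing between cycles. In each cycle, clusters annealed to 100 nM quencher-labelled ATP aptamer were imaged in selection buffer, then after 15 min with 500 uM ATP at 22 °C. Per cluster, the fluorescence ratio is summed target-cycle over summed buffer-cycle Cy3 intensity, averaged per switch-domain sequence. Only clusters within 100-1000 RFU were kept.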
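Note: ATP exposure 15 min at 22 °C before imaging.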

| Sequence | switch fluorescence ratio |
| --- | --- |
| GTTACTTGTG | 1.01 |
| GTTAGAATC | 0.996 |
| GTTAGCAGCT | 1 |
| GTTAGCAGGT | 1.01 |
| GTTAGCAGTC | 1.04 |
| GTTAGCGA | 1.08 |
| GTTAGCGTCA | 1.03 |
| GTTAGCTCTA | 0.972 |
| GTTAGGCACT | 1 |
| GTTAGGCCC | 1 |
| GTTAGTCATG | 0.965 |
| GTTAGTCCTC | 1.03 |
| GTTAGTCGTA | 0.98 |
| GTTAGTGAGA | 0.96 |
| GTTAGTGCTT | 1.01 |
| GTTAGTTCGC | 1.04 |
| GTTATACACT | 0.959 |
| GTTATAGGT | 0.967 |
| GTTATATCG | 1.02 |
| GTTATATGAA | 0.923 |
| GTTATATGCG | 1.03 |
| GTTATCGCCA | 1.01 |

| Sequence | switch fluorescence ratio |
| --- | --- |
| GTTATCGGAA | 1.03 |
| GTTATGCCCA | 1.01 |
| GTTATGGAAT | 1.04 |
| GTTATGTAGC | 1.05 |
| GTTATGTGAG | 0.982 |
| GTTATGTGT | 1 |
| GTTATTAGCA | 1.06 |
| GTTATTGATT | 1.06 |
| GTTATTGGTC | 1.01 |
| GTTATTTCTC | 1 |
| GTTCAACGAC | 0.993 |
| GTTCAATA | 1.28 |
| GTTCACGAGC | 0.99 |
| GTTCCGATGT | 1.2 |
| GTTCCGGCTA | 1.1 |
| GTTCCTCTTC | 1.03 |
| GTTCCTTGGT | 0.992 |
| GTTCGAAATG | 1 |
| GTTCGACCAT | 1.02 |
| GTTCGATTGG | 1.03 |
| GTTCGGACCT | 1.25 |
| GTTCGTGGGG | 1.03 |

| Sequence | switch fluorescence ratio |
| --- | --- |
| GTTCTAACTA | 0.986 |
| GTTCTAATTA | 1.01 |
| GTTCTCAACC | 0.993 |
| GTTCTCCAAT | 1.01 |
| GTTCTGCGAT | 1.21 |
| GTTCTTAAAG | 1 |
| GTTCTTCGCC | 1.04 |
| GTTGAAAATA | 1.04 |
| GTTGAAAG | 1.01 |
| GTTGAATAGT | 1.01 |
| GTTGAATTGA | 1.01 |
| GTTGACGTAT | 1.09 |
| GTTGAGAGGG | 0.969 |
| GTTGAGGATC | 1.04 |
| GTTGAGGTGC | 0.965 |
| GTTGAGGTGG | 1.26 |
| GTTGATCGGT | 0.985 |
| GTTGATTTG | 0.954 |
| GTTGCAAAAT | 1.02 |
| GTTGCCGCTG | 1.05 |
| GTTGCCGTTA | 0.961 |
| GTTGCTAGGG | 0.987 |

| Sequence | switch fluorescence ratio |
| --- | --- |
| GTTGCTGCTG | 0.989 |
| GTTGGAACCT | 1.09 |
| GTTGGACGGA | 0.966 |
| GTTGGACGGT | 1.01 |
| GTTGGAGGCC | 0.986 |
| GTTGGATTAT | 0.999 |
| GTTGGCCTTG | 0.976 |
| GTTGGCTTTT | 0.967 |
| GTTGGGTGTC | 1.11 |
| GTTGGTACAT | 0.984 |
| GTTGTAACTT | 0.967 |
| GTTGTAAGAC | 0.954 |
| GTTGTAGAAA | 1.03 |
| GTTGTCCGGA | 1.04 |
| GTTGTCGAT | 1.01 |
| GTTGTCGGCT | 1.07 |
| GTTGTGATCA | 1.06 |
| GTTGTGGCAT | 1.02 |
| GTTGTGGGTC | 0.964 |
